Assay results published in patent US20230303648A1 (OSE IMMUNOTHERAPEUTICS, published 2023).

T1: CD127 recombinant protein (Histidine tagged, Sino ref 10975-H08H) (UniProt P16871 21-239)
T1 construct: bought; used in the CD127 sandwich ELISA; also called CD127 receptor; IL-7Ralpha; not shown: histidine tag
T1 sequence (looked up): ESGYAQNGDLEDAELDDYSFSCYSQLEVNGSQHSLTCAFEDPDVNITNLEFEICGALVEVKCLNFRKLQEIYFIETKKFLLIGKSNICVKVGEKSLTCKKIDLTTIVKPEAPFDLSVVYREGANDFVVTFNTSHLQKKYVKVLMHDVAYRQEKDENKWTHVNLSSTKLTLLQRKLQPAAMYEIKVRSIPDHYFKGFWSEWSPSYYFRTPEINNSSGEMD

T2: CD127 (Sinobiological, 10975-H03H-50) (UniProt P16871 21-239)
T2 construct: bought; immobilised on the CM5 chip in the Biacore assays; also called CD127 receptor
T2 sequence (looked up): T1 sequence (looked up)

T3: human CD127 on PD-1-negative cells (Jurkat, CHO or U937 cells expressing CD127 only) (human, UniProt P16871 21-459)
T3 construct: whole, on cells; U937 cells also carry endogenous CD132; also called PD-1-CD127+ cells; PD-1(-)CD127(+) cells
T3 sequence (looked up): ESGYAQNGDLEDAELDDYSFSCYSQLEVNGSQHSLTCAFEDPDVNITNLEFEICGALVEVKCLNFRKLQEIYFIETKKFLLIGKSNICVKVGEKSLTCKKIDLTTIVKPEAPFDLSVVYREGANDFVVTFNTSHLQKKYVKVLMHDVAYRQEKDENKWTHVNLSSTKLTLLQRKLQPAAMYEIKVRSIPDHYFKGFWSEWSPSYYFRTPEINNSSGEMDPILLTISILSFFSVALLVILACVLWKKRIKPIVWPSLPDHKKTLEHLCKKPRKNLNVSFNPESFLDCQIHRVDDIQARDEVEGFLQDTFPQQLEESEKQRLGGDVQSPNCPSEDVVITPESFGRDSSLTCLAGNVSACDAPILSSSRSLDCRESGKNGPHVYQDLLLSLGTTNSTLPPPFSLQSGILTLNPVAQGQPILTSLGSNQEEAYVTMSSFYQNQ

B1: anti PD-1 IL-7 WT bifunctional molecule, IgG1m isotype, (GGGGS)3 linker (other)
heavy: QIQLVQSGSELKKPGASVKVSCKASGYTFTHYAMNWVRQAPGQGLEWMGWINTNTGEPTYAQGFTGRFVFSLDTSVSTAYLQISSLKAEDTAVYYCAREREPGMDNWGQGTLVTVSS[… human IgG1 constant region with changes …]GGGGSGGGGSGGGGSDCDIEGKDGKQYESVLMVSIDQLLDSMKEIGSNCLNNEFNFFKRHICDANKEGMFLFRAARKLRQFLKMNSTGDFDLHLLKVSEGTTILLNCTGQVKGRKPAALGEAQPTKSLEENKSLKEQKKLNDLCFLKRLLQEIKTCWNKILMGTKEH
light: DVVMTQSPLSLPVTLGQPASISCRSSQSLVHANTNTYLEWYQQRPGQSPRLLIYKVSNRFSGVPDRFSGSGSGTDFTLKISRVEAEDVGVYYCFQGTHVPNTFGQGTKLEIKRTVAAPSVFIFPPSDEQLKSGTASVVCLLNNFYPREAKVQWKVDNALQSGNSQESVTEQDSKDSTYSLSSTLTLSKADYEKHKVYACEVTHQGLSSPVTKSFNRGEC
notes: antibody-IL-7 fusion, IgG1 N298A (N297A)
B2: anti PD-1 IL-7 SS2 bifunctional molecule, IgG1m isotype, (GGGGS)3 linker (other)
heavy: QIQLVQSGSELKKPGASVKVSCKASGYTFTHYAMNWVRQAPGQGLEWMGWINTNTGEPTYAQGFTGRFVFSLDTSVSTAYLQISSLKAEDTAVYYCAREREPGMDNWGQGTLVTVSS[… human IgG1 constant region with changes …]GGGGSGGGGSGGGGSDSDIEGKDGKQYESVLMVSIDQLLDSMKEIGSNCLNNEFNFFKRHISDANKEGMFLFRAARKLRQFLKMNSTGDFDLHLLKVSEGTTILLNSTGQVKGRKPAALGEAQPTKSLEENKSLKEQKKLNDLCFLKRLLQEIKTSWNKILMGTKEH
light: B1 light
notes: as m24 with IL-7 SS2; also called anti PD-1 IL-7 SS2 bifunctional molecule with an IgG1m
B3: anti PD-1 IL-7 W142H bifunctional molecule, IgG1m isotype, (GGGGS)3 linker (construction 1 as used in Example 8) (other)
heavy: QIQLVQSGSELKKPGASVKVSCKASGYTFTHYAMNWVRQAPGQGLEWMGWINTNTGEPTYAQGFTGRFVFSLDTSVSTAYLQISSLKAEDTAVYYCAREREPGMDNWGQGTLVTVSS[… human IgG1 constant region with changes …]GGGGSGGGGSGGGGSDCDIEGKDGKQYESVLMVSIDQLLDSMKEIGSNCLNNEFNFFKRHICDANKEGMFLFRAARKLRQFLKMNSTGDFDLHLLKVSEGTTILLNCTGQVKGRKPAALGEAQPTKSLEENKSLKEQKKLNDLCFLKRLLQEIKTCHNKILMGTKEH
light: B1 light
notes: two anti PD-1 arms and two IL-7 W142H; also called anti PD-1*2 IL-7 W142H*2; anti-PD-1*2 IL7 W142H*2
B4: Construction 2: anti PD-1*2 IL-7 W142H*1 (other)
heavy 1: QIQLVQSGSELKKPGASVKVSCKASGYTFTHYAMNWVRQAPGQGLEWMGWINTNTGEPTYAQGFTGRFVFSLDTSVSTAYLQISSLKAEDTAVYYCAREREPGMDNWGQGTLVTVSSASTKGPSVFPLAPSSKSTSGGTAALGCLVKDYFPEPVTVSWNSGALTSGVHTFPAVLQSSGLYSLSSVVTVPSSSLGTQTYICNVNHKPSNTKVDKKV[… human IgG1 Fc with changes …]GGGGSGGGGSGGGGSDCDIEGKDGKQYESVLMVSIDQLLDSMKEIGSNCLNNEFNFFKRHICDANKEGMFLFRAARKLRQFLKMNSTGDFDLHLLKVSEGTTILLNCTGQVKGRKPAALGEAQPTKSLEENKSLKEQKKLNDLCFLKRLLQEIKTCHNKILMGTKEH
heavy 2: QIQLVQSGSELKKPGASVKVSCKASGYTFTHYAMNWVRQAPGQGLEWMGWINTNTGEPTYAQGFTGRFVFSLDTSVSTAYLQISSLKAEDTAVYYCAREREPGMDNWGQGTLVTVSSASTKGPSVFPLAPSSKSTSGGTAALGCLVKDYFPEPVTVSWNSGALTSGVHTFPAVLQSSGLYSLSSVVTVPSSSLGTQTYICNVNHKPSNTKVDKKVEPKSCDKTHTCPPCPAPELLGGPSVFLFPPKPKDTLMISRTPEVTCVVVDVSHEDPEVKFNWYVDGVEVHNAKTKPREEQYASTYRVVSVLTVLHQDWLNGKEYKCKVSNKALPAPIEKTISKAKGQPREPQVYTLPPCRDELTKNQVSLWCLVKGFYPSDIAVEWESNGQPENNYKTTPPVLDSDGSFFLYSKLTVDKSRWQQGNVFSCSVMHEALHNHYTQKSLSLSPGK
light: B1 light
notes: IgG1 N298A, knob-into-hole
B5: Construction 4: anti PD-1*1 IL-7 W142H*2 (other)
heavy: QIQLVQSGSELKKPGASVKVSCKASGYTFTHYAMNWVRQAPGQGLEWMGWINTNTGEPTYAQGFTGRFVFSLDTSVSTAYLQISSLKAEDTAVYYCAREREPGMDNWGQGTLVTVSSASTKGPSVFPLAPSSKSTSGGTAALGCLVKDYFPEPVTVSWNSGALTSGVHTFPAVLQSSGLYSLSSVVTVPSSSLGTQTYICNVNHKPSNTKVDKKV[… human IgG1 Fc with changes …]GGGGSGGGGSGGGGSDCDIEGKDGKQYESVLMVSIDQLLDSMKEIGSNCLNNEFNFFKRHICDANKEGMFLFRAARKLRQFLKMNSTGDFDLHLLKVSEGTTILLNCTGQVKGRKPAALGEAQPTKSLEENKSLKEQKKLNDLCFLKRLLQEIKTCHNKILMGTKEH
chain: DKTHTCPPCPAPELLGGPSVFLFPPKPKDTLMISRTPEVTCVVVDVSHEDPEVKFNWYVDGVEVHNAKTKPREEQYASTYRVVSVLTVLHQDWLNGKEYKCKVSNKALPAPIEKTISKAKGQPREPQVYTLPPCRDELTKNQVSLWCLVKGFYPSDIAVEWESNGQPENNYKTTPPVLDSDGSFFLYSKLTVDKSRWQQGNVFSCSVMHEALHNHYTQKSLSLSPGKGGGGSGGGGSGGGGSDCDIEGKDGKQYESVLMVSIDQLLDSMKEIGSNCLNNEFNFFKRHICDANKEGMFLFRAARKLRQFLKMNSTGDFDLHLLKVSEGTTILLNCTGQVKGRKPAALGEAQPTKSLEENKSLKEQKKLNDLCFLKRLLQEIKTCHNKILMGTKEH
light: B1 light
notes: IgG1 N298A, knob-into-hole; also called anti PD-1*1 IL-W142H*2

How the values were obtained:
[1] = biological target: T1, CD127 recombinant protein (Histidine …); assay: sandwich ELISA, PD-1 immobilised, molecule preincubated with His-tagged CD127, anti-His-biotin + streptavidin-peroxidase, 450 nm
[2] = biological target: T4, recombinant human PD-1 (rPD1; Sino Biologicals, reference 10377-H08H) (human, UniProt Q15116 part only); assay: ELISA, recombinant human PD-1 immobilised, anti-human Fc-peroxidase, TMB, 450 nm
T4 construct: bought; also called hPD1; PD-1 receptor

[3] = biological target: T1, CD127 recombinant protein (Histidine …); assay: sandwich ELISA, PD-1 immobilised, molecule preincubated with His-tagged CD127, anti-His-biotin + streptavidin-peroxidase, 450 nm; remark: listed apart in the source
[4] = biological target: T2, CD127 (Sinobiological, 10975-H03H-50); assay: Biacore: CD127 immobilised on sensor chip, fusion at escalating doses
[5] = biological target: T4, recombinant human PD-1 (rPD1; Sino …); assay: ELISA: PD-1 immobilised, anti-human Fc peroxidase detection
[6] = biological target: T1, CD127 recombinant protein (Histidine …); assay: sandwich ELISA, PD-1 immobilised, molecule preincubated with His-tagged CD127, anti-His-biotin + streptavidin-peroxidase, 450 nm; remark: listed apart in the source
[7] = biological target: T1, CD127 recombinant protein (Histidine …); assay: as above; remark: listed apart in the source
[8] = biological target: T5, biotinylated recombinant human PD-1 (human, UniProt Q15116 part only, limits assumed, biotinylated (site not stated)); assay: competition ELISA: PD-L1 immobilised (competitor), biotinylated PD-1 at 0.6 µg/mL premixed with the molecule
T5 construct: used in solution in the PD-1/PD-L1 antagonist ELISA; also called PD-1 receptor

[9] = biological target: T1, CD127 recombinant protein (Histidine …); assay: sandwich ELISA, PD-1 immobilised, molecule at varied concentration + fixed quantity of His-tagged CD127, anti-His-biotin + streptavidin-peroxidase, 450 nm, blank deducted
[10] = biological target: T3, human CD127 on PD-1-negative cells …; assay: flow cytometry, 1:1 co-culture of U937 PD-1+CD127+ and U937 PD-1-CD127+ cells, anti-human IgG PE; EC50 of binding, n=2

| Binder | Kd [4] [nM] | EC50 [5] [nM] | EC50 [8] [nM] | also measured |
| --- | --- | --- | --- | --- |
| B1 | – | – | – | EC50 (read off the curve) [1]: ~0.008 µg/mL |
| B2 | – | – | – | EC50 (read off the curve) [2]: ~0.005 µg/mL; binding result [3]: binds |
| B3 | 37.3 | 0.034 | 2.79 | EC50 (read off the curve) [6]: ~0.07 µg/mL; EC50 (read off the curve) [7]: ~0.05 µg/mL |
| B4 | 45.2 | 0.026 | 2.17 | EC50 (read off the curve) [9]: ~0.9 nM |
| B5 | – | 0.086 | – | binding result [10]: binds |
